# According to PMC12820563, “FoxP3 forms a head-to-head dimer in vivo and stabilizes its multimerization on adjacent microsatellites”:
# This is one part of the list.
# Biological target: T1, MBP-FoxP1dN (Mus musculus, UniProt P58462 326-579)
# T1 sequence: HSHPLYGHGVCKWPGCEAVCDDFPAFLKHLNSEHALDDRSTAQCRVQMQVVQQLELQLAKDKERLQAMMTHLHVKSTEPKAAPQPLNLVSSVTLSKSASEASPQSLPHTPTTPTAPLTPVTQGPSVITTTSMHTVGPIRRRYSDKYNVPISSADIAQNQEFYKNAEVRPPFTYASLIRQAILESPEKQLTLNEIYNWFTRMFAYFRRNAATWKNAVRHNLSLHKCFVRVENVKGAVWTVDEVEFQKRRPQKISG
# Experiment: PD-seq (MBP pull-down with sequencing); 20 mM Tris-HCl pH 7.5, 100 mM NaCl, 1.5 mM MgCl2, 0.4 uM protein, 0.1 uM dsDNA library, 30 min, room temperature, amylose pull-down; high values mean tight binding
# Conditions: protein: recombinant; tags: His6-MBP; chain copies: 2; dsDNA, one strand shown
# Procedure, shortened: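 The N-terminus-lacking fragment of mouse FoxP3 or FoxP1 carried a His6-MBP tag and was expressed in E. coli. At 0.4 µM it was incubated with 0.1 µM Klenow-filled degenerate double-stranded DNA library for 30 min at room temperature in Tris pH 7.5 buffer with NaCl and MgCl2, and complexes were caught on amylose resin, washed three times, released with proteinase K, PCR-barcoded and Illumina-sequenced. Binding is reads-per-million enrichment of pull-down over input with replicates pooled.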
row,Sequence,binding signal
1,GATGATTGTTCTCCCAGCTGATGAATTGTACGAGTCGAGTAAACAAATTTTCCTAATCTTTCTGTTCAAGCGCCATCTAC,0.927 RPM ratio (pull-down/input)
2,GATGATTGTTCTCCCAGCTGATGAATTTCTTTCATCGAGTAAACAAATTTTCCTAATCTTTCTGTTCAAGCGCCATCTAC,0.939 RPM ratio (pull-down/input)
3,GATGATTGTTCTCCCAGCTGATGAATTAACGATGTCGAGTAAACAAATTTTCCTAATCTTTCTGTTCAAGCGCCATCTAC,0.979 RPM ratio (pull-down/input)
4,GATGATTGTTCTCCCAGCTGATGAATTTCTAAGGTCGAGTAAACAAATTTTCCTAATCTTTCTGTTCAAGCGCCATCTAC,0.771 RPM ratio (pull-down/input)
5,GATGATTGTTCTCCCAGCTGATGAATTGGTACTCTCGAGTAAACAAATTTTCCTAATCTTTCTGTTCAAGCGCCATCTAC,0.973 RPM ratio (pull-down/input)
6,GATGATTGTTCTCCCAGCTGATGAATTAGAGACTTCGAGTAAACAAATTTTCCTAATCTTTCTGTTCAAGCGCCATCTAC,0.926 RPM ratio (pull-down/input)
7,GATGATTGTTCTCCCAGCTGATGAATTACTTCATTCGAGTAAACAAATTTTCCTAATCTTTCTGTTCAAGCGCCATCTAC,1.11 RPM ratio (pull-down/input)
8,GATGATTGTTCTCCCAGCTGATGAATTATCAGTATCGAGTAAACAAATTTTCCTAATCTTTCTGTTCAAGCGCCATCTAC,1.08 RPM ratio (pull-down/input)
9,GATGATTGTTCTCCCAGCTGATGAATTAAGGCGTTCGAGTAAACAAATTTTCCTAATCTTTCTGTTCAAGCGCCATCTAC,1.02 RPM ratio (pull-down/input)
10,GATGATTGTTCTCCCAGCTGATGAATTAAAGTGCTCGAGTAAACAAATTTTCCTAATCTTTCTGTTCAAGCGCCATCTAC,0.925 RPM ratio (pull-down/input)
11,GATGATTGTTCTCCCAGCTGATGAATTGCCTACATCGAGTAAACAAATTTTCCTAATCTTTCTGTTCAAGCGCCATCTAC,1.07 RPM ratio (pull-down/input)
12,GATGATTGTTCTCCCAGCTGATGAATTGGGATGTTCGAGTAAACAAATTTTCCTAATCTTTCTGTTCAAGCGCCATCTAC,0.931 RPM ratio (pull-down/input)
13,GATGATTGTTCTCCCAGCTGATGAATTTAATACATCGAGTAAACAAATTTTCCTAATCTTTCTGTTCAAGCGCCATCTAC,1.14 RPM ratio (pull-down/input)
14,GATGATTGTTCTCCCAGCTGATGAATTAAGTCGATCGAGTAAACAAATTTTCCTAATCTTTCTGTTCAAGCGCCATCTAC,0.986 RPM ratio (pull-down/input)
15,GATGATTGTTCTCCCAGCTGATGAATTAAGCCCTTCGAGTAAACAAATTTTCCTAATCTTTCTGTTCAAGCGCCATCTAC,0.841 RPM ratio (pull-down/input)
16,GATGATTGTTCTCCCAGCTGATGAATTCATTAACTCGAGTAAACAAATTTTCCTAATCTTTCTGTTCAAGCGCCATCTAC,0.891 RPM ratio (pull-down/input)

row,Sequence,binding signal
1,GATGATTGTTCTCCCAGCTGATGAATTCGGGTAGTCGAGTAAACAAATTTTCCTAATCTTTCTGTTCAAGCGCCATCTAC,0.855 RPM ratio (pull-down/input)
2,GATGATTGTTCTCCCAGCTGATGAATTCTTAGGGTCGAGTAAACAAATTTTCCTAATCTTTCTGTTCAAGCGCCATCTAC,0.841 RPM ratio (pull-down/input)
3,GATGATTGTTCTCCCAGCTGATGAATTACAAATCTCGAGTAAACAAATTTTCCTAATCTTTCTGTTCAAGCGCCATCTAC,1.27 RPM ratio (pull-down/input)
4,GATGATTGTTCTCCCAGCTGATGAATTGCGAATATCGAGTAAACAAATTTTCCTAATCTTTCTGTTCAAGCGCCATCTAC,1.17 RPM ratio (pull-down/input)
5,GATGATTGTTCTCCCAGCTGATGAATTGGTATTTTCGAGTAAACAAATTTTCCTAATCTTTCTGTTCAAGCGCCATCTAC,2.46 RPM ratio (pull-down/input)
6,GATGATTGTTCTCCCAGCTGATGAATTGACTCATTCGAGTAAACAAATTTTCCTAATCTTTCTGTTCAAGCGCCATCTAC,1.12 RPM ratio (pull-down/input)
7,GATGATTGTTCTCCCAGCTGATGAATTCCCGCGGTCGAGTAAACAAATTTTCCTAATCTTTCTGTTCAAGCGCCATCTAC,0.733 RPM ratio (pull-down/input)
8,GATGATTGTTCTCCCAGCTGATGAATTCCTTCCTTCGAGTAAACAAATTTTCCTAATCTTTCTGTTCAAGCGCCATCTAC,0.839 RPM ratio (pull-down/input)
9,GATGATTGTTCTCCCAGCTGATGAATTCTGGCTATCGAGTAAACAAATTTTCCTAATCTTTCTGTTCAAGCGCCATCTAC,0.891 RPM ratio (pull-down/input)
10,GATGATTGTTCTCCCAGCTGATGAATTATTATCCTCGAGTAAACAAATTTTCCTAATCTTTCTGTTCAAGCGCCATCTAC,1.19 RPM ratio (pull-down/input)
11,GATGATTGTTCTCCCAGCTGATGAATTGAGTGCCTCGAGTAAACAAATTTTCCTAATCTTTCTGTTCAAGCGCCATCTAC,0.948 RPM ratio (pull-down/input)
12,GATGATTGTTCTCCCAGCTGATGAATTAACAAGATCGAGTAAACAAATTTTCCTAATCTTTCTGTTCAAGCGCCATCTAC,1.09 RPM ratio (pull-down/input)
13,GATGATTGTTCTCCCAGCTGATGAATTGCGTGAGTCGAGTAAACAAATTTTCCTAATCTTTCTGTTCAAGCGCCATCTAC,1.03 RPM ratio (pull-down/input)
14,GATGATTGTTCTCCCAGCTGATGAATTTACCCAATCGAGTAAACAAATTTTCCTAATCTTTCTGTTCAAGCGCCATCTAC,1.37 RPM ratio (pull-down/input)
15,GATGATTGTTCTCCCAGCTGATGAATTCTTACAGTCGAGTAAACAAATTTTCCTAATCTTTCTGTTCAAGCGCCATCTAC,0.931 RPM ratio (pull-down/input)
